Laboratory results taken from PubChem BioAssay AID1347073 (National Center for Advancing Translational Sciences (NCATS), 2019).
Out of some 45,000 compounds screened, about 200 (0.44%) were called active. Inconclusive results (about 7%) are left out. Calls follow the shape of the dose curve; as a rule, active = well fitted activation curve with a large enough effect; inconclusive = small, poorly fitted or top-dose-only effect; inactive = no such curve, though single readings can be large or run the other way. This is one part of the list.

Assay: qHTS of TDP-43 Inhibitors: NCGC Sytravon Library Screen; also: 0% is about no effect; nearly all actives have a fitted effect of over 55% in size
Settings: yeast TDP-43 toxicity rescue, BacTiter-Glo growth, 24 h; series mostly up to 46.1 µM; growth rescue (activation): at the top concentration
Method in brief: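 TDP-43-expressing yeast, pregrown in raffinose, seeded at OD600 0.02 in galactose medium with compound for 24 hr at 30 deg C. Growth read by BacTiter-Glo luminescence, so rescue of toxicity appears as activation.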
In the case of `COc1cc(/C=C/C(=O)NCCN2CCOCC2)cc(OC)c1OC`, the “growth rescue (activation)” value is reported as inactive: 12.4%. With `Cc1ccc(C(C(=O)NC2CCCC2)N(Cc2ccc(F)cc2)C(=O)c2snc(C(N)=O)c2N)o1` (centres undefined) the “growth rescue (activation)” value was inactive: 14.6%. For `COc1ccc(C(=O)NNC(=O)Cc2coc3cc(OC)ccc23)cc1`, the “growth rescue (activation)” value was inactive: -15.8%. For `CCn1cc(CCC(=O)NC2CCCC2)c2ccccc21`, the “growth rescue (activation)” value was inactive: 3.24%. In the case of `O=C(COC(=O)/C=C/c1ccc(Cl)cc1)NC(=O)NCc1ccccc1`, the “growth rescue (activation)” value is reported as inactive: -16%. With `Cc1ccc(C(=O)OCC(=O)Nc2c(C)n(C)n(-c3ccccc3)c2=O)cc1[N+](=O)[O-]` the “growth rescue (activation)” value was inactive: -2.37%. With `COCCNC(=S)NCc1cccs1` the “growth rescue (activation)” value was inactive: 2.97%. With `CC(C)c1ccc(NC(=O)C2Cc3c(-c4ccc(Cl)cc4)ccnc3O2)cc1` (centres undefined) the “growth rescue (activation)” value was inactive: 3.79%. In the case of `CCN(CC)c1ccc(/C=c2\sc3nnc(-c4ccccc4Cl)n3c2=O)cc1`, the “growth rescue (activation)” value is reported as inactive: 30.9%. For `C#CCNC(=O)c1csc([C@@H]2O[C@H](CO)[C@@H](O)[C@H]2O)n1`, the “growth rescue (activation)” value was inactive: -1.08%. For `CCC(C)[C@H](NC(=O)OC(C)(C)C)C(=O)N/N=C/c1ccc2cc(OC)ccc2n1` (some centres undefined), the “growth rescue (activation)” value was inactive: 2.34%. In the case of `CCN1CCN(c2ccc(S(=O)(=O)N(CC)CC)cc2[N+](=O)[O-])CC1`, the “growth rescue (activation)” value is reported as inactive: 10.6%. For `COCCn1nnnc1CN(Cc1cc2cc(OC)c(OC)cc2[nH]c1=O)C1CCCC1`, the “growth rescue (activation)” value was inactive: 33.7%. With `CC1(C)NC(=O)N(CC(O)COc2ccccc2[N+](=O)[O-])C1=O` (centres undefined) the “growth rescue (activation)” value was inactive: -0.491%. In the case of `CC(=O)c1cc2c(cc1NC(=O)c1ccco1)OCCO2`, the “growth rescue (activation)” value is reported as inactive: 11.4%. For `Cc1oc(-c2cccs2)nc1CN1CCN(Cc2ccc(F)c(F)c2)C(CCO)C1` (centres undefined), the “growth rescue (activation)” value was inactive: 9.5%. With `COc1cc(/C=N/NC(=O)C2COc3ccccc3O2)ccc1O` (centres undefined) the “growth rescue (activation)” value was inactive: -4.27%. With `O=C(NC1CCSC1=O)c1cccc(Cl)c1` (centres undefined) the “growth rescue (activation)” value was inactive: -2.51%. For `Cn1c(CC(=O)Nc2ccccc2)nnc1SCC(=O)Nc1ccc(N2CCOCC2)cc1`, the “growth rescue (activation)” value was inactive: -9.53%. For `Cc1ccc(NC(=O)C2CCCN2S(=O)(=O)c2ccc3c(c2)n(C)c(=O)c(=O)n3C)cc1` (centres undefined), the “growth rescue (activation)” value was inactive: -30.9%. With `N#CC1(c2cccc(Br)c2)C(=O)Nc2ccccc21` (centres undefined) the “growth rescue (activation)” value was inactive: -0.794%. With `CCOC(=O)/C(C#N)=C/N=c1ccc(C)cn1C` the “growth rescue (activation)” value was inactive: 5.9%. In the case of `CC(=O)Nc1ccc(NC(=O)CSc2nc3ccccc3c(=O)n2CCCN2CCOCC2)cc1`, the “growth rescue (activation)” value is reported as inactive: 2.61%. With `COC(c1ccccc1)c1nnc(CCC(=O)N(C)CCc2ccccc2)o1` (centres undefined) the “growth rescue (activation)” value was inactive: 2.31%. In the case of `Cc1ccc(NC(=O)CSc2ccccn2)cc1S(=O)(=O)N1CCOCC1`, the “growth rescue (activation)” value is reported as inactive: -12.6%. With `CCC1=Nc2ccc(Br)cc2C(c2ccccc2)N1CC(=O)OC` (centres undefined) the “growth rescue (activation)” value was inactive: 23.9%. In the case of `Cc1cc(-n2cccn2)ccc1CN1CCN(C2CCCC2)C(CCO)C1` (centres undefined), the “growth rescue (activation)” value is reported as inactive: 0.665%. In the case of `CC(=O)OCCN1C(=O)c2ccc(-c3nc4ccccc4c(=O)o3)cc2C1=O`, the “growth rescue (activation)” value is reported as inactive: 21.9%. For `COc1ccc(C)cc1NC(=O)CN(c1ccccc1F)S(C)(=O)=O`, the “growth rescue (activation)” value was inactive: 7.21%. In the case of `COc1ccc(N(C(=O)CNC(=O)c2ccco2)C(C(=O)NC2CCCCC2)c2ccncc2)cc1` (centres undefined), the “growth rescue (activation)” value is reported as inactive: -0.562%. For `O=C(NCc1ccc2c(c1)OCO2)C1CCC(CNS(=O)(=O)c2ccccc2)CC1` (centres undefined), the “growth rescue (activation)” value was inactive: 2.45%. In the case of `COC(=O)C1(C)NC(c2ccccc2C)C2C(=O)N(c3ccc(F)cc3)C(=O)C21` (centres undefined), the “growth rescue (activation)” value is reported as inactive: 1.33%. With `CC1=C(C(=O)N2CCN(c3cccc(C(F)(F)F)c3)CC2)C2(CCCCC2)OC1=O` the “growth rescue (activation)” value was inactive: -5.08%. With `CC(C)C(=O)Nc1ccc(N2CCN(c3ccc(F)cc3)CC2)cc1` the “growth rescue (activation)” value was inactive: 9.36%. With `CCOC(=O)c1c(C)[nH]c(N=Nc2cc(C(=O)O)cc(C(=O)O)c2)c1C` the “growth rescue (activation)” value was inactive: 3.34%. In the case of `Nc1nonc1C(=O)NCCNS(=O)(=O)c1ccc(F)cc1`, the “growth rescue (activation)” value is reported as inactive: 19.7%. For `COc1ccc(-n2ncc3c(=O)n(CC(=O)Nc4ccc5c(c4)OCCO5)cnc32)cc1`, the “growth rescue (activation)” value was inactive: -7.73%. In the case of `CC(C)C(NC(=O)C1CCC(C(C)(C)C)CC1)C(=O)NCCCN1CCCCC1` (centres undefined), the “growth rescue (activation)” value is reported as inactive: 7.02%. For `O=C1CCC(=O)N1c1ccc(S(=O)(=O)Nc2ccc(Br)cc2)cc1`, the “growth rescue (activation)” value was inactive: -9.35%. With `COCCn1c(COc2cccc(OC)c2)nnc1SCC(=O)NC1CCCCC1` the “growth rescue (activation)” value was inactive: -13.2%. For `Cc1cc(C)cc(N(CC(=O)N/N=C/c2ccncc2)S(=O)(=O)c2ccccc2)c1`, the “growth rescue (activation)” value was inactive: 17.4%. In the case of `Nc1n[nH]c(CCCO)n1`, the “growth rescue (activation)” value is reported as inactive: 21.5%. With `COc1cc2c(cc1OC)C(CC(=O)O)N(C(=O)CC1CCCC1)CC2` (centres undefined) the “growth rescue (activation)” value was inactive: 5.85%. For `CS(=O)(=O)CC(=O)Nc1ccc2nc3n(c(=O)c2c1)CCCCC3`, the “growth rescue (activation)” value was inactive: -12.6%. In the case of `CN(C)c1ccc(/C=C2\SC(=O)N(CC(O)Cn3c4ccccc4c4ccccc43)C2=O)cc1` (centres undefined), the “growth rescue (activation)” value is reported as inactive: -7.68%. In the case of `COC(=O)CCN(C(=O)c1cccc([N+](=O)[O-])c1)c1ccccn1`, the “growth rescue (activation)” value is reported as inactive: 5.55%. For `CCNCc1nc2cc(Cl)ccc2c(=O)[nH]1`, the “growth rescue (activation)” value was inactive: -18.1%. In the case of `Cc1ccc(Oc2ccc(NC(=O)CSc3n[nH]c(N)n3)cc2)cc1`, the “growth rescue (activation)” value is reported as inactive: -0.398%. With `Oc1[nH]c2ccccc2c1C1=NCCCCC1` the “growth rescue (activation)” value was inactive: 36.2%. In the case of `COc1ccc(OCCNc2cc(N3CCCCC3)ccc2[N+](=O)[O-])cc1`, the “growth rescue (activation)” value is reported as inactive: 31.1%. In the case of `COc1ccc(/C=N/NC(=O)c2ccc(Cl)c(S(N)(=O)=O)c2)cc1OCC(N)=O`, the “growth rescue (activation)” value is reported as inactive: 20.8%. For `COc1cc(SC)ccc1C(=O)Nc1ccc(S(=O)(=O)N2CCCC2)cc1`, the “growth rescue (activation)” value was inactive: -14.6%. With `NC(=O)CC[C@H](NC(=O)OCc1ccccc1)C(=O)OCc1ccc(Cl)cc1` the “growth rescue (activation)” value was inactive: 10.1%. In the case of `CCOc1ccc2c(c1)nc(C)n2C`, the “growth rescue (activation)” value is reported as inactive: -6.95%.
